Consider 2 molecules from PMC9986587.

The target in assay [1] is T1, Flag-tagged JMJD1A amino acids 2-650 (UniProt Q9Y4C1).
T1 sequence: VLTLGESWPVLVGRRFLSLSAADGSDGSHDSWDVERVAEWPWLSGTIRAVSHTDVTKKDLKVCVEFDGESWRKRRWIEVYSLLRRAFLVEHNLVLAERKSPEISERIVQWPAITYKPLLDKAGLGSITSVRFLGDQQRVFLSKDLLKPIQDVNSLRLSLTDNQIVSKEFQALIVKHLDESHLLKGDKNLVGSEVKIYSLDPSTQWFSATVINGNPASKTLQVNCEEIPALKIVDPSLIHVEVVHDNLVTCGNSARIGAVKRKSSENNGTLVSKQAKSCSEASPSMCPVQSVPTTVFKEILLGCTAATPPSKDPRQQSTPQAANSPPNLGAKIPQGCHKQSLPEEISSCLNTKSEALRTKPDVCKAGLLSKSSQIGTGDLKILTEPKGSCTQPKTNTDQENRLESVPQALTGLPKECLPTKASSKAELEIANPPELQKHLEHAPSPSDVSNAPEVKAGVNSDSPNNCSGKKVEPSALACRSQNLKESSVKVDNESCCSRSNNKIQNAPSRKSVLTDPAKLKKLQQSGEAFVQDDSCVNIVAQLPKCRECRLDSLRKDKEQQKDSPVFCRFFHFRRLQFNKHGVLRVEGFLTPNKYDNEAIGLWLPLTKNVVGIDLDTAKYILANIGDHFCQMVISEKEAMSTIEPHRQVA
Put plainly: co-IP; 293T cells transiently cotransfected with a Flag-tagged and a 6Myc-tagged protein; cell extracts two days after transfection; immunoprecipitation with anti-Flag antibodies, anti-Myc Western blot.

A further assay deals with T2, Flag-JMJD1A (UniProt Q9Y4C1).
T2 sequence: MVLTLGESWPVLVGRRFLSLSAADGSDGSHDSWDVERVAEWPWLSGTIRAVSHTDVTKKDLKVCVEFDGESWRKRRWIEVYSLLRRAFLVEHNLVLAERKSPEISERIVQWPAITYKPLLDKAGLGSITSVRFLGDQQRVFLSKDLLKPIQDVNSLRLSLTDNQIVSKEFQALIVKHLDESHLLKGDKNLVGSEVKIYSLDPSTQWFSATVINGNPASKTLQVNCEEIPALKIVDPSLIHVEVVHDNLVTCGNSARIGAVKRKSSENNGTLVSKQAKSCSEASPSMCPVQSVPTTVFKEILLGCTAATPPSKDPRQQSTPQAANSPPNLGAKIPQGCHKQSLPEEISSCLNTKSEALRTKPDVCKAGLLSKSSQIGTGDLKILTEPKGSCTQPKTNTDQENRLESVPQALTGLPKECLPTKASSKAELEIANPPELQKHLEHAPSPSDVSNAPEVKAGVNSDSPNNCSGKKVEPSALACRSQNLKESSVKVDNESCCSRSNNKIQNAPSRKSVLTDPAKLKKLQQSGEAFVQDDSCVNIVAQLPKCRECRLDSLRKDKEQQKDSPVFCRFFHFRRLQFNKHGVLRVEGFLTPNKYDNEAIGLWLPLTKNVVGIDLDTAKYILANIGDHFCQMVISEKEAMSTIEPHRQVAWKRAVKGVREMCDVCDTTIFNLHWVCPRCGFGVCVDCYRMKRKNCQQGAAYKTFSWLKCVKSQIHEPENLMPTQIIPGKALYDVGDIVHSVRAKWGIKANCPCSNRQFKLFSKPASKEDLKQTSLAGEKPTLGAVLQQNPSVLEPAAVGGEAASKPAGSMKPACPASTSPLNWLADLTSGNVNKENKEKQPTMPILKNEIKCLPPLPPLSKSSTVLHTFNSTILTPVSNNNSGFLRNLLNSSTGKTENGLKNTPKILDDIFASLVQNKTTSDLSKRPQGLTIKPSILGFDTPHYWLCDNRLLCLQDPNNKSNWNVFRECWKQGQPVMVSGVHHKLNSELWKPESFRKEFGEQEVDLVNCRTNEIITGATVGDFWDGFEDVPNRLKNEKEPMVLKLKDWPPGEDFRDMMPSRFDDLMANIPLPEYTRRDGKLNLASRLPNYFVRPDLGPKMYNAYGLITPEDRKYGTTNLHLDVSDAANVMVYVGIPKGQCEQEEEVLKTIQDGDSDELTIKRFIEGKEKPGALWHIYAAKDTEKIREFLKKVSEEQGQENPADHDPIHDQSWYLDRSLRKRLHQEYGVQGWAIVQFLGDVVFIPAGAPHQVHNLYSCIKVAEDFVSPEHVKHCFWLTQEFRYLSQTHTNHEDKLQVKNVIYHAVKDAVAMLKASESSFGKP
The description is as above.

Assay [2] addresses T3, endogenous JMJD1A (human (endogenous in HCT116)) (UniProt Q9Y4C1).
T3 sequence: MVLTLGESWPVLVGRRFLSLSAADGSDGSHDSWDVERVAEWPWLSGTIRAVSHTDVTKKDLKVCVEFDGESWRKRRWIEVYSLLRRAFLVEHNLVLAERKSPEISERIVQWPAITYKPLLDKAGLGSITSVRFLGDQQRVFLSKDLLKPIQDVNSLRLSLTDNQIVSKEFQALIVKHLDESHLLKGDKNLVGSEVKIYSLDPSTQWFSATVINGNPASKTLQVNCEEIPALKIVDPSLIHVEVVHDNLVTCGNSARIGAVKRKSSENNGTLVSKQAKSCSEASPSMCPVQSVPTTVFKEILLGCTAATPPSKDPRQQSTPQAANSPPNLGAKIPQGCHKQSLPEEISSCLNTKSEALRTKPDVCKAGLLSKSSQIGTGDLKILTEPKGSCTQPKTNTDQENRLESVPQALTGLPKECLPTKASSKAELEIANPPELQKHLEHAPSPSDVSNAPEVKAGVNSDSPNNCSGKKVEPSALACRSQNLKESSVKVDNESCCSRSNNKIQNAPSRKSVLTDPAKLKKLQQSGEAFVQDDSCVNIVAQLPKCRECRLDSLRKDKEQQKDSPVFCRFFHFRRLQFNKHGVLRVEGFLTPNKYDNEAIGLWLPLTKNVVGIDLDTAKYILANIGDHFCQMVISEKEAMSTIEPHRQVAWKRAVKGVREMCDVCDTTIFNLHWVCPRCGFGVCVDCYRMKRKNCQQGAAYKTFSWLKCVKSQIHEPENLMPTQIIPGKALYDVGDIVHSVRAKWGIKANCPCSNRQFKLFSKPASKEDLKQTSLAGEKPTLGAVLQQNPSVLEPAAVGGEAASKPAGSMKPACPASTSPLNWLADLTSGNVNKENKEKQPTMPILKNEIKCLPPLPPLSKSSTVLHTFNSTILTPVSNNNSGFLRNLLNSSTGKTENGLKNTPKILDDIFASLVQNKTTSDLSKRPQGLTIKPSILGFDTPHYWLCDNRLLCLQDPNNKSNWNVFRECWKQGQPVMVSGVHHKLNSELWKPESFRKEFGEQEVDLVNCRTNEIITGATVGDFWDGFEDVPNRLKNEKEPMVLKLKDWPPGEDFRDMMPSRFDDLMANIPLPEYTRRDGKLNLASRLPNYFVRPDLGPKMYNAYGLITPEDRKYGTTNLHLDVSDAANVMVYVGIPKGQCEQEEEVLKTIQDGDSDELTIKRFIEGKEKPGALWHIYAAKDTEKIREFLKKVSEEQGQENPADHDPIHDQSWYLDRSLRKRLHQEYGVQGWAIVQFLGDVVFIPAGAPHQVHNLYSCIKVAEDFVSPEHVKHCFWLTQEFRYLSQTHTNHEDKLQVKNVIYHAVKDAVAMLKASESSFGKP
Put plainly: co-IP; endogenous proteins from HCT116 cells; immunoprecipitation with rabbit polyclonal anti-JMJD1A antibodies or control rabbit IgG, Western blot with anti-JMJD2A antibodies.

No constants are given. Whether binding was seen depends on the method and setting. Binding seen in cells or lysates may run through a third protein. Some results given as binding are weak or reduced against the parent protein; the word gives no strength. For part of these data: Tags and fused reporters may be left off the sequences shown.

B1: 6Myc-JMJD2A (protein, UniProt O75164 1-1064)
chain: MASESETLNPSARIMTFYPTMEEFRNFSRYIAYIESQGAHRAGLAKVVPPKEWKPRASYDDIDDLVIPAPIQQLVTGQSGLFTQYNIQKKAMTVREFRKIANSDKYCTPRYSEFEELERKYWKNLTFNPPIYGADVNGTLYEKHVDEWNIGRLRTILDLVEKESGITIEGVNTPYLYFGMWKTSFAWHTEDMDLYSINYLHFGEPKSWYSVPPEHGKRLERLAKGFFPGSAQSCEAFLRHKMTLISPLMLKKYGIPFDKVTQEAGEFMITFPYGYHAGFNHGFNCAESTNFATRRWIEYGKQAVLCSCRKDMVKISMDVFVRKFQPERYKLWKAGKDNTVIDHTLPTPEAAEFLKESELPPRAGNEEECPEEDMEGVEDGEEGDLKTSLAKHRIGTKRHRVCLEIPQEVSQSELFPKEDLSSEQYEMTECPAALAPVRPTHSSVRQVEDGLTFPDYSDSTEVKFEELKNVKLEEEDEEEEQAAAALDLSVNPASVGGRLVFSGSKKKSSSSLGSGSSRDSISSDSETSEPLSCRAQGQTGVLTVHSYAKGDGRVTVGEPCTRKKGSAARSFSERELAEVADEYMFSLEENKKSKGRRQPLSKLPRHHPLVLQECVSDDETSEQLTPEEEAEETEAWAKPLSQLWQNRPPNFEAEKEFNETMAQQAPHCAVCMIFQTYHQVEFGGFNQNCGNASDLAPQKQRTKPLIPEMCFTSTGCSTDINLSTPYLEEDGTSILVSCKKCSVRVHASCYGVPPAKASEDWMCSRCSANALEEDCCLCSLRGGALQRANDDRWVHVSCAVAILEARFVNIAERSPVDVSKIPLPRFKLKCIFCKKRRKRTAGCCVQCSHGRCPTAFHVSCAQAAGVMMQPDDWPFVVFITCFRHKIPNLERAKGALQSITAGQKVISKHKNGRFYQCEVVRLTTETFYEVNFDDGSFSDNLYPEDIVSQDCLQFGPPAEGEVVQVRWTDGQVYGAKFVASHPIQMYQVEFEDGSQLVVKRDDVYTLDEELPKRVKSRLSVASDMRFNEIFTEKEVKQEKKRQRVINSRYREDYIEPALYRAIME
For the molecule B1, the binding result (in assay [1]; in the assay with Flag-JMJD1A) was “binds” each time.

B2: endogenous JMJD2A (protein, UniProt O75164 1-1064)
chain: MASESETLNPSARIMTFYPTMEEFRNFSRYIAYIESQGAHRAGLAKVVPPKEWKPRASYDDIDDLVIPAPIQQLVTGQSGLFTQYNIQKKAMTVREFRKIANSDKYCTPRYSEFEELERKYWKNLTFNPPIYGADVNGTLYEKHVDEWNIGRLRTILDLVEKESGITIEGVNTPYLYFGMWKTSFAWHTEDMDLYSINYLHFGEPKSWYSVPPEHGKRLERLAKGFFPGSAQSCEAFLRHKMTLISPLMLKKYGIPFDKVTQEAGEFMITFPYGYHAGFNHGFNCAESTNFATRRWIEYGKQAVLCSCRKDMVKISMDVFVRKFQPERYKLWKAGKDNTVIDHTLPTPEAAEFLKESELPPRAGNEEECPEEDMEGVEDGEEGDLKTSLAKHRIGTKRHRVCLEIPQEVSQSELFPKEDLSSEQYEMTECPAALAPVRPTHSSVRQVEDGLTFPDYSDSTEVKFEELKNVKLEEEDEEEEQAAAALDLSVNPASVGGRLVFSGSKKKSSSSLGSGSSRDSISSDSETSEPLSCRAQGQTGVLTVHSYAKGDGRVTVGEPCTRKKGSAARSFSERELAEVADEYMFSLEENKKSKGRRQPLSKLPRHHPLVLQECVSDDETSEQLTPEEEAEETEAWAKPLSQLWQNRPPNFEAEKEFNETMAQQAPHCAVCMIFQTYHQVEFGGFNQNCGNASDLAPQKQRTKPLIPEMCFTSTGCSTDINLSTPYLEEDGTSILVSCKKCSVRVHASCYGVPPAKASEDWMCSRCSANALEEDCCLCSLRGGALQRANDDRWVHVSCAVAILEARFVNIAERSPVDVSKIPLPRFKLKCIFCKKRRKRTAGCCVQCSHGRCPTAFHVSCAQAAGVMMQPDDWPFVVFITCFRHKIPNLERAKGALQSITAGQKVISKHKNGRFYQCEVVRLTTETFYEVNFDDGSFSDNLYPEDIVSQDCLQFGPPAEGEVVQVRWTDGQVYGAKFVASHPIQMYQVEFEDGSQLVVKRDDVYTLDEELPKRVKSRLSVASDMRFNEIFTEKEVKQEKKRQRVINSRYREDYIEPALYRAIME
Regarding B2, in assay [2], the binding result is listed as “binds”.
